Sequences and labels used below:
B1: LINE1-mini (parent)
chain: GGCAGAGCUCAACACAGCGUGGCAAAGUGGCUGUGGCUAGACUGCC

Read counts are not given, so values of variants with three or more changes are uncertain.

In this series the parent is B1. As to the kind of experiment: self-cleavage, relative activity (ratio to wild type); higher = more cleavage; in vitro, sequencing; the parent is a self-cleaving ribozyme.
On to G2C G5A A6C A41G, for which the self-cleavage was determined as 0.05.

G30A U34A C42A: the self-cleavage worked out at 0.03.

G2C G17C G22U G33A A39G: the self-cleavage is 0.07.

For C31U G40A C45G, the self-cleavage was found to be 0.04.

With A4U G5U C15G G22U, the self-cleavage was 0.03. Next, C3G G5A U28A C46A: 0.03; C13G A25U U32G U38G A41C C42A: 0; C18U G40C C46A: 0.04.

In the case of U9C A16G C23A, the self-cleavage turned out to be 0.04. In the case of C8G C10A A16U, the self-cleavage worked out at 0.01. With A26C U28A G30C U38C C42U U43G the figure was 0.1; with A6G A11C A14C A26G C46G, 0. With G22A A26G C31G the figure was 0.04; with G2A C3A G36U, 1.71. A11C G21U A26U C45G: the self-cleavage amounted to 0.01. Next, G2U A12C G21A: 0.02.

Take C31G U34C U38A: the self-cleavage was 0.05. Next, A4G C10A U34G C46A: 0.01; A11G C13G U38C: 0.03; A24U G27U G30A: 1.2. Next, A6U C8A G40A: 0.36; A6G A12C G27C: 0.05. With A26G U34A A41U the figure was 0.05; with A24C A26G G33A G44C, 0.06. As to C10A C15A U20A C46A, the self-cleavage was 0.01.

Turning to C10U C37U G44U, the self-cleavage is 0.1. With U9G C10U A12U A14C C23G A24C the figure was 0.03; with A24G U32G C37G, 0.03.

For the variant G1U G17C G36A, the self-cleavage stood at 0.11. Next, C8G U9C G29U: 0.04; A26C U34G G35U: 0.07.

For A11U C13A A39C, the self-cleavage stood at 0.03. With A14G A41C U43C C45G the figure was 0.02; with U28C G35U G40U, 0.17; with C13A G22U A41C, 0.1. For A14G U28C C31U, the self-cleavage stood at 0.03. With G7A G19U G27U U43G the figure was 0.02. Next, G17U A24C G29A: 0.45; C10A G21U A25U G36A: 0.01; G1A C13U G27U A41G: 0.11.

A14C C23G U34A C45G: the self-cleavage was 0.06.

As for G2U G5U G7C C15U, the self-cleavage stood at 0.1. Next, C18A U20G G44U: 0.04. For C10G U34A C42U, the self-cleavage was 0.03. With C8G G36C G40U, the self-cleavage worked out at 0.02. Next, C8A G17U G29A: 0.12. With G2A U9C C10G U20G the figure was 0.09; with C8A C23U G30U G36A, 2.5; with A12G U20C G44A, 0.01. Next, C10G G29U G44C: 0.06; A16G G17U U20G G22A A24G U34C U43G C46U: 0.08. With U9A G19U G44U, the self-cleavage came to 0.06.

Consider U9G U20A G22A U32C C37G G40A C42U C45U C46G, for which the self-cleavage stood at 0.03. Next, G5C G7A C13U: 0.1; U9G C42A U43G G44C: 0.08. Take G1U G22A G35A: the self-cleavage is 0.28. With A6U G7A C18U G21U G35A G36U C37U the figure was 0.1; with A11C G17C G40U, 0.02. With C10G A14G A16U G17A C23G U34G the figure was 0.01; with G7C A12G A24C U32G G33A, 0.42.

Take A4G A11C C31U C45A: the self-cleavage stood at 0.02. With G7A A12C G19C the figure was 0.12; with G29U C31G C46A, 0.15; with C3U A11G G17U G29A, 0.03.

As for A4G A11U C13A A14U U43C, the self-cleavage came out at 0.02. Next, G2C A11U U28G G40U: 0.01.

Regarding A6G G22C U38C, the self-cleavage is 0.04. With A4C C15U G33U C37U G40A, the self-cleavage came to 0.01. With A25G A26G G36C G44A the figure was 0.02.

For C18A C23G A25U, the self-cleavage was determined as 0.05. With G17U G29A A41C C45U the figure was 0.03; with A12C C18G U32A G44U, 0.01; with G19A G27U G29C A39C A41C U43A, 0.05. With C3U G7A C13G the figure was 0.07. With A4G A14C G35U G40C the figure was 0.04; with G1A G2A G7A C37A, 1.36; with A6C G19C C23A, 0.1.

In the case of G1C U9C G19C U20A U38C, the self-cleavage was 0.05. Next, A25U C42A U43A: 0.04. In the case of A11C C13U C31A G36A C37U, the self-cleavage was determined as 0.03. With A4C C15G G21A G35A the figure was 0.03; with A16C G22C G33C, 0.14; with G7C C18G G35A, 0.16. Consider G1A A25C U34C C42A, for which the self-cleavage stood at 0.07. C13U C18G G27A U43A: the self-cleavage was 0.09. With A26U U28A A39C the figure was 0.45; with C8A U28A C31A, 0.04; with G17A C37A C42U, 0.04. Next, A4G G7C C37A G40A C46G: 0.04; C3A G5U A25C G27A: 0.46. Next, C8A C15U U38G: 0.14; G2U A14U G21U: 0.02; A4U A12C G21C U34A A39C C46A: 0.02.

G1U G5A A6G C8G G29U G44A: the self-cleavage worked out at 0.02. With C3G C10U G17C U20G C31G U38G A39G U43A the figure was 0.01; with A26G G40A C46A, 0.22; with C10A C18U G21U G22U U32A, 0.03.

For the variant A6U G7C C8G C42A, the self-cleavage is 0.41.

As to A14U G21U A24U U34G U43C, the self-cleavage turned out to be 0.07. With G1U C3G A16U G27A G35C, the self-cleavage is 0.13.

For G2U C10A G22C C42G, the self-cleavage worked out at 0.01. Consider C3U G27A C37U, for which the self-cleavage was determined as 0.1. Next, G19A G30A G40A A41U C42A: 0.18; C13G A25C C37G G44A: 0.03; G21U G30A U32G A39U: 0.07. G1A C10A U20G C31U: the self-cleavage came out at 0.06. Regarding G5A A41C C46A, the self-cleavage turned out to be 0.06.

Take C3G C15U G27A C31U G36U: the self-cleavage worked out at 0.03.

Take G1U U9A C10G A26G U28G G40A: the self-cleavage came to 0.01.

Consider A4C U20A A39U C45U, for which the self-cleavage was 0.04. Turning to G21U G29U U38C, the self-cleavage came out at 0.11. With G22U A25G U32G C46U the figure was 0.05. Next, G17U G19C G27A U28A: 1.53; G21C C31A A41U: 0.69; G5U A6G C10A U43G: 0.02. With C10G G22U A24C U38A the figure was 0.01; with C3U G5U C8A U9G C23G, 0.09; with G21U C31A G36A C37A A41C G44U C46G, 0.03. U9G C10U G33U: the self-cleavage was 0.06. As for C10U A26G C46A, the self-cleavage stood at 0.19.

With G2U G17U C31U G35U, the self-cleavage amounted to 0.08. Next, G5C U9G G29U C46G: 0.08; G27C G29A G40A: 0.11. Next, G1C G22U U32A: 0.03; A12C A16G U20C: 0.02; C3G C31A U34G G35A: 0. Next, G17A G19U G29U: 0.01; G2U C3A G33U C45A C46U: 0.06; C3G C13A U20A: 0.07.

Consider G1U A6C C8U, for which the self-cleavage turned out to be 0.15.

G1C G36U A39G C42U: the self-cleavage is 0. A6G C15A C18A C31A: the self-cleavage is 0.02. Next, G1U G21C C31A C42A C45U: 0.01. Next, A6C U9G C13G C37U: 0.02; G2C U28G C31A G40U: 0.01. With G27A G35A C46G the figure was 0.07. In the case of C8A C31U G33U, the self-cleavage was 0.17. With G5C A6U G29U C46G the figure was 0.08.

As to G5C G7U C8A A11U C23G G33A G36C U38C, the self-cleavage is 0.01. Next, A12G G17A G19C A39G: 0; A4C G17A G35C G36U C45U: 0.01; G1U G21C G27C: 0.18.

As to U9C C10A G30A C37U, the self-cleavage came to 0.03. With A4G G17U G19C C37U the figure was 0; with G40A C42A C46A, 0.09; with A11G C31G A41G, 0.01. With A11U C31A U32A U34G C42U the figure was 0.01; with C8A C23U A26U U38G A41G C46U, 0.02; with G7C G19U U38C C45G, 0.05. With G2U A12U C46U the figure was 0.01; with C10A G17C G27U, 0.03; with A4C C8U C10A A26G A39C, 0.01. For G1U G5U A25U G44U, the self-cleavage worked out at 0.05.

Turning to A12G U34A A41G, the self-cleavage came out at 0.

For C3A A6G A24U G33U, the self-cleavage was determined as 0.14. On to C18A A26C U32A, for which the self-cleavage came to 0.01. With A25U U34G G44A the figure was 0.05; with C13G G22A A24U, 0.24; with A11U G19U G22U U32A U38G, 0.01.

Consider A11U C15U C18A C31G, for which the self-cleavage amounted to 0. With G17C G21U G27U A41G, the self-cleavage was 0.17. With C3G A12U A25C G29A G30U C31A C37U the figure was 0.05; with G17A G35U G36C U38C C45G, 0.02; with G2U C3A G7U, 0.18. Next, C8U U20C G21U G22A U28C C45U: 0; C13U G33A C37A U38C G40U: 0.02; G1C U9C A11U G35C: 0.
